Where “and” joins values, the source holds several entries; their conditions need not be identical. Equal entries are not always repeated. Hit rate of the full screen: of about 270,000 compounds, about 5,800 (2.1%) were called active. The inconclusive results got no clear call from the source; some entries with a clear call stand among them for comparison. The call rests on the fitted dose curve; in most records, active means well fitted inhibition curve with a large enough effect; inconclusive means small, poorly fitted or top-dose-only effect; inactive means flat fitted curve, though single readings scatter. A potency beside an inconclusive call is a rough fit, not a confirmed value.
molecular target: Microtubule-associated protein tau (Homo sapiens) (UniProt P10636); experiment: qHTS for Inhibitors of Tau Fibril Formation, Thioflavin T Binding; settings: recombinant tau K18 P301L (four-repeat tau fragment), heparin-induced fibrillization, ThT fluorescence; series mostly up to 57.4 µM; activity, negative = inhibition: at the top concentration; further: nearly all actives have a fitted effect of over 55% in size
UniProt P10636, sequence (P10636 whole entry, looked up, the tested form may be a part): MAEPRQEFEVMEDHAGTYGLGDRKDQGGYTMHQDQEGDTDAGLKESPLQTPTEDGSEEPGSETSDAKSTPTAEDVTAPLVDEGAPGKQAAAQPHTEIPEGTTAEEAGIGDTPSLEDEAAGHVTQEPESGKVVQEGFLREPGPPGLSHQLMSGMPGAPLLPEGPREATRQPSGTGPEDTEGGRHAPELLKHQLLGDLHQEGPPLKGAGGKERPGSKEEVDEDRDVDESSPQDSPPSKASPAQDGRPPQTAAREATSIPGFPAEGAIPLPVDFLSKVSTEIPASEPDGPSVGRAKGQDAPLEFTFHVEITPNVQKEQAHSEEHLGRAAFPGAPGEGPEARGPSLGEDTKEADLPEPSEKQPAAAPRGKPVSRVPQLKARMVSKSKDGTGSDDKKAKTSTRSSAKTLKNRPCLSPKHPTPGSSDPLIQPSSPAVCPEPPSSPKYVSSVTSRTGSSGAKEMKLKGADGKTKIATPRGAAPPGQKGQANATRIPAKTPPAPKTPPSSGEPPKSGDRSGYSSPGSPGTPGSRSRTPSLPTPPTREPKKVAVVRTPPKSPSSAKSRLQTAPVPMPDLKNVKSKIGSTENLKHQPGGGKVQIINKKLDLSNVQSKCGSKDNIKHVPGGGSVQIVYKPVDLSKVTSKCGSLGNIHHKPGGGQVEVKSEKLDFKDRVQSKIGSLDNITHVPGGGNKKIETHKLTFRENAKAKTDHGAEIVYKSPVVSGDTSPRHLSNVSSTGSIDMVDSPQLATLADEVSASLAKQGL
In short: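 Heparin-induced fibrillization of the P301L-mutant K18 repeat-domain fragment of human tau was followed by ThT binding in quantitative high-throughput format.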
On the % scale 0 is the no-effect control and ±100 the full control effect; potency means the concentration at half of the fitted maximal effect; tags describe the fitted curve by direction and shape.

`Cc1cc(C)c(NC(=O)CSC2=Nc3ccccc3C3=NC(CC(=O)NCc4cccs4)C(=O)N23)c(C)c1` (configuration not stated) was tested. Which Potency did it give?
The Potency was inconclusive: 44.7 µM [inhibitor, single point].

Which Potency does the source give for `Cc1nn(-c2ccccc2)c(Cl)c1/C=N/NC(=O)c1ccccc1NS(=O)(=O)c1cccs1` here?
The Potency was inconclusive: 28.2 µM [inhibitor, single point].

For `CC(C)c1ccc2c(c1)c(SC(C)(C)C)c(CC(C)(C)C(=O)O)n2Cc1ccc(Cl)cc1`, which Potency is on record?
Its Potency is inconclusive: 39.8 µM [inhibitor, single point] and inconclusive: 31.6 µM [inhibitor, partial curve].

With `CCOC(=O)N1CCN(S(=O)(=O)N2CCCC(C(=O)NCc3cc(Br)ccc3OC)C2)CC1` (configuration not stated) as the molecule, how does the “activity, negative = inhibition” value read?
The value was inactive: 4.75%.

With `COc1ccc(C(=O)c2sc3nc(-c4ccccc4)ccc3c2N)cc1OC` as the molecule, how does the “activity, negative = inhibition” value read?
The value was inactive: -7.55%.

With `Brc1ccc(-c2cn3c(n2)CCc2ccc4cccnc4c2-3)cc1` as the molecule, how does the Potency read?
Its Potency is inconclusive: 6.31 µM [inhibitor, partial curve].

For `Cn1c(=O)c2c(-c3ccccc3F)c3c(nc2n(C)c1=O)-c1ccccc1C3O` (configuration not stated), which “activity, negative = inhibition” value is on record?
The value was inactive: -6.76%.

`O=c1[nH]n2c(=O)c3c([nH]c2c1N=Nc1cccc(C(F)(F)F)c1)CCCC3` was tested. Which Potency did it give?
Its Potency is active: 2.82 µM.

With `COc1cccc(Nc2nc3c(S(=O)(=O)c4cc(C)ccc4C)nnn3c3ccsc23)c1` as the molecule, how does the Potency read?
Its Potency is inconclusive: 28.2 µM [activator, single point].

For `O=C1C=CC(=O)C2=C1C1c3ccccc3C2c2ccccc21`, which Potency is on record?
The Potency was active: 20 µM.

For `O=C(Oc1oc(-c2ccco2)nc1C=Nc1ccccc1)c1ccco1`, which Potency is on record?
The Potency was inconclusive: 31.6 µM [inhibitor, partial curve].

`COC(=O)c1ccc(COC(=O)CNC(=O)c2ccc(-c3ccccc3)cc2)cc1` was tested. Which Potency did it give?
The Potency was inconclusive: 0.708 µM [inhibitor, full curve].

For `COCCCn1c(SCC(=O)Nc2ccc(F)cc2)nc2c(sc3ccccc32)c1=O`, which “activity, negative = inhibition” value is on record?
The value was inactive: 14.1%.

For `CCc1ccc(N2CC(C(=O)OCC(=O)NC3CCS(=O)(=O)C3)CC2=O)cc1` (configuration not stated), which “activity, negative = inhibition” value is on record?
Its value is inactive: 0.308%.

`Cc1nn(C)c(C)c1/C=N/N=C1\CCC2C3CCc4cc(O)ccc4C3CCC12C` (configuration not stated) was tested. Which Potency did it give?
The Potency was inconclusive: 3.55 µM [inhibitor, partial curve].

Which Potency does the source give for `Cc1ccc(C)n1-n1c(C)nc2sc(-c3ccccc3)cc2c1=O` here?
Its Potency is inconclusive: 15.8 µM [inhibitor, single point].

`Cc1ccccc1OCC(=O)Nc1ccccc1N1CCCCC1` was tested. Which Potency did it give?
Its Potency is inconclusive: 12.6 µM [inhibitor, partial curve].

`Cc1ccc2cc(C)c(SCC(=O)NCc3ccco3)nc2c1` was tested. Which “activity, negative = inhibition” value did it give?
Its value is inactive: -17.5%.

`Cc1ccc(-c2nc(NC(=O)c3nn(C)cc3[N+](=O)[O-])sc2C)cc1` was tested. Which “activity, negative = inhibition” value did it give?
Its value is inactive: -16.4%.

`Cc1ccc(C)c(Nc2c([N+](=O)[O-])cc(C(=O)N3CC(=O)Nc4ccccc43)cc2[N+](=O)[O-])c1` was tested. Which Potency did it give?
The Potency was inconclusive: 14.1 µM [inhibitor, partial curve].

With `CC(/C=C/c1ccccc1)=N\Nc1nc(-c2ccccc2)cs1` as the molecule, how does the Potency read?
Its Potency is active: 7.94 µM.

`Cc1ccc(/C(O)=C2/C(=O)C(=O)N(Cc3ccco3)C2c2cccs2)cc1` (configuration not stated) was tested. Which Potency did it give?
Its Potency is inconclusive: 35.5 µM [inhibitor, single point].

Which Potency does the source give for `O=C(NCCOc1ccc(Cl)cc1)c1ccc2ccccc2n1` here?
The Potency was inconclusive: 25.1 µM [inhibitor, single point].

How did the Potency turn out when `CCOc1ccc2sc(NS(=O)(=O)c3ccc(OC)c(OC)c3)nc2c1` was run?
The Potency was inconclusive: 14.1 µM [inhibitor, partial curve].

How did the “activity, negative = inhibition” value turn out when `O=C(/C=C/c1cccs1)Nc1cccnc1` was run?
The value was inactive: -7.84%.

With `O=C(O)CN=C1NC2(CCCCC2)Cc2ccccc21` as the molecule, how does the “activity, negative = inhibition” value read?
The value was inactive: -1.45%.

With `CCCn1c2ccccc2c2cnn(CC(=O)NCCCN(CC)c3ccccc3)c(=O)c21` as the molecule, how does the Potency read?
Its Potency is inconclusive: 35.5 µM [inhibitor, partial curve].

Which Potency does the source give for `O=C(Nc1ncc(Cc2ccccc2Cl)s1)c1ccc(-c2cccc([N+](=O)[O-])c2)o1` here?
The Potency was inconclusive: 12.6 µM [inhibitor, partial curve].

For `COc1ccc(-c2cc3ncc(C(=O)c4cc([N+](=O)[O-])ccc4O)cn3n2)cc1`, which Potency is on record?
The Potency was active: 7.08 µM.

With `O=C(Nc1cccc2cccnc12)c1ccc(-c2cccc(Cl)c2)o1` as the molecule, how does the Potency read?
Its Potency is inconclusive: 2.51 µM [inhibitor, full curve].

`N#C/C=C1/NC(=O)c2ccccc2S1` was tested. Which Potency did it give?
The Potency was inconclusive: 17.8 µM [inhibitor, partial curve].

`Cc1nn(-c2nc3ccccc3s2)c(C)c1Oc1ccccc1O` was tested. Which Potency did it give?
Its Potency is inconclusive: 7.94 µM [inhibitor, partial curve].

With `Cc1[nH]c(=O)[nH]c(=O)c1/C=N/NC(=O)[C@H](C)NC(=O)OC(C)(C)C` as the molecule, how does the “activity, negative = inhibition” value read?
Its value is inactive: -1.53%.

`CC(/C=C/C(=O)NO)=C\[C@@H](C)C(=O)c1ccc(N(C)C)cc1` was tested. Which Potency did it give?
Its Potency is inconclusive: 35.5 µM [inhibitor, partial curve].

How did the Potency turn out when `COc1ccc(/C=C(\C#N)c2nc3ccc(C)cc3[nH]2)cc1Oc1ccc(C(F)(F)F)cc1[N+](=O)[O-]` was run?
The Potency was inconclusive: 12.6 µM [inhibitor, partial curve].

With `O=C1C(NS(=O)(=O)c2cccs2)=C(N2CCOCC2)C(=O)c2ccccc21` as the molecule, how does the Potency read?
Its Potency is active: 15.8 µM.

How did the Potency turn out when `CCCc1nc(N2CCCC2)c(C#N)c2c1CCCC2` was run?
The Potency was inconclusive: 35.5 µM [inhibitor, single point].

With `COc1ccc2[nH]cc(CCNc3ncncc3-c3ccccc3CN(C)C)c2c1` as the molecule, how does the Potency read?
Its Potency is inconclusive: 39.8 µM [inhibitor, partial curve].

How did the Potency turn out when `CSc1nsc2nc(=O)c(/C=C3\C(C)=Nc4ccccc43)c(N)n12` was run?
Its Potency is inconclusive: 2.82 µM [inhibitor, full curve].

With `CCc1ccc(NC(=O)c2ccc(Cn3nc(N4CCN(c5ccccc5)CC4)ccc3=O)o2)cc1` as the molecule, how does the Potency read?
The Potency was inconclusive: 12.6 µM [inhibitor, partial curve].

Which Potency does the source give for `c1ccn2cc(-c3ccc4c(c3)OCO4)cc2c1` here?
The Potency was inconclusive: 14.1 µM [inhibitor, partial curve].

Which “activity, negative = inhibition” value does the source give for `CCOC(=O)C1=C(C)NC2=C(C(=O)OC2)C1c1ccccc1` (configuration not stated) here?
Its value is inactive: -5.63%.

For `CCOC(=O)c1c(S(=O)(=O)NCC(=O)Nc2ccc(C(C)=O)cc2)c(C)n(C)c1C`, which “activity, negative = inhibition” value is on record?
The value was inactive: -3.03%.

How did the Potency turn out when `COc1ccc(NC(=O)Nc2ccccc2OC)cc1` was run?
The Potency was inconclusive: 35.5 µM [inhibitor, partial curve].

For `COc1ccc(-c2nc(CCNC(=O)c3ccccc3)cs2)cc1OC`, which Potency is on record?
Its Potency is inconclusive: 25.1 µM [inhibitor, single point].

For `Fc1cccc(NC(=S)NCCc2ccccc2)c1`, which “activity, negative = inhibition” value is on record?
The value was inactive: -9.15%.

`Cc1cccc(C)c1NC(=O)CCCn1c(=O)c2cccn2c2ccccc21` was tested. Which Potency did it give?
Its Potency is inconclusive: 0.447 µM [inhibitor, full curve].

Which Potency does the source give for `O=Cc1sc(Nc2ccccc2)nc1Cl` here?
Its Potency is inconclusive: 12.6 µM [inhibitor, partial curve, poor fit].

Which “activity, negative = inhibition” value does the source give for `Cc1ccc(NC(=O)Cn2cc(S(=O)(=O)c3ccc(C)cc3)c(=O)c3cc(F)ccc32)cc1` here?
Its value is inactive: -1.47%.

With `COc1ccc(Cn2c3nc4ccccc4nc3c3c(=O)n(Cc4ccco4)cnc32)cc1` as the molecule, how does the Potency read?
The Potency was inconclusive: 22.4 µM [inhibitor, partial curve].

`Fc1ccc(-c2csc(=Nc3cccc(C(F)(F)F)c3)n2Cc2ccc3c(c2)OCO3)cc1` was tested. Which “activity, negative = inhibition” value did it give?
The value was inactive: 0.772%.

With `CC(CCC(=O)O)C1CCC2C3CC(O)[C@@H]4CC(O)CC[C@]4(C)C3CC[C@@]12C` (some centres not stated) as the molecule, how does the Potency read?
The Potency was inconclusive: 3.55 µM [inhibitor, single point].

Which Potency does the source give for `O=C(c1ccc(COc2c(F)c(F)cc(F)c2F)o1)N1CCN(c2ccccc2)CC1` here?
Its Potency is inconclusive: 7.94 µM [inhibitor, full curve].

How did the Potency turn out when `Cn1c(SCC(=O)Nc2cccc(Br)c2)nnc1-c1cc2ccccc2o1` was run?
Its Potency is inconclusive: 1.12 µM [inhibitor, full curve, poor fit].

`CCCCNc1nc(N)nc(-c2cc(Cl)ccc2O)n1` was tested. Which Potency did it give?
The Potency was inconclusive: 10 µM [inhibitor, partial curve, poor fit].

With `O=C(Oc1cccccc1=O)c1ccccc1` as the molecule, how does the Potency read?
Its Potency is inconclusive: 25.1 µM [inhibitor, partial curve].

For `Cc1ccccc1Nc1c([N+](=O)[O-])ccc2c1=NC1(CCCCC1)N=2`, which Potency is on record?
Its Potency is inconclusive: 7.08 µM [inhibitor, partial curve].

Which “activity, negative = inhibition” value does the source give for `Cc1ccc(S(=O)(=O)Nc2cc(NC(=O)CN3CCOCC3)ccc2Cl)cc1` here?
The value was inactive: -5.52%.

`Cc1onc(-c2c(F)cccc2Cl)c1C(=O)Nc1cccc2nsnc12` was tested. Which Potency did it give?
The Potency was inconclusive: 39.8 µM [inhibitor, partial curve].

Which Potency does the source give for `Cc1ccc(-n2cc(CN(C)Cc3nccn3C)c(-c3ccc(F)cc3)n2)cc1` here?
The Potency was inconclusive: 14.1 µM [inhibitor, partial curve, poor fit].

With `O=c1c2c3c(sc2ncn1Cc1ccc(F)cc1)CCC3` as the molecule, how does the Potency read?
The Potency was inconclusive: 25.1 µM [inhibitor, partial curve].

How did the Potency turn out when `O=C(Nc1sc2c(c1C(=O)NCC1CCCO1)CCC2)c1cc(=O)c2cc(Cl)ccc2o1` (configuration not stated) was run?
The Potency was inconclusive: 2.24 µM [inhibitor, partial curve].

How did the Potency turn out when `COc1cc(/C=N/NS(=O)(=O)c2ccc3ccccc3c2)ccc1OCc1ccc(C(=O)O)cc1` was run?
The Potency was inconclusive: 31.6 µM [inhibitor, partial curve].

With `C1CCN(c2nc(N3CCCCC3)nc(N3CCNCC3)n2)CC1` as the molecule, how does the “activity, negative = inhibition” value read?
Its value is inactive: -7.99%.

For `Cc1ccccc1SCC(=O)N1CCN(c2ccc(C(F)(F)F)cn2)CC1`, which Potency is on record?
Its Potency is inconclusive: 14.1 µM [inhibitor, partial curve].

How did the “activity, negative = inhibition” value turn out when `CCc1nn2c(=O)cc(COC(=O)c3ccccc3NC(=O)COc3ccc(F)cc3)nc2s1` was run?
The value was inactive: 0.005%.

`Cc1c(C(=O)NCc2ccoc2)oc2ccc3c(c12)C(=O)CC(C)(C)O3` was tested. Which Potency did it give?
The Potency was inconclusive: 12.6 µM [inhibitor, partial curve].

Reference: PubChem BioAssay AID1460 (National Center for Advancing Translational Sciences (NCATS), 2008)
